# The list shows a part of the results. Single values are uncertain, as repeats are few or missing.
# Assays:
# Assay in all cases: cell count relative to DMSO control; melanoma cells; higher = more viable cells
# Conditions in all cases: library dose: low library concentration; 72 h
# MZ2-MEL = system: MZ2-MEL
# MeWo = system: MeWo
# RPMI7951 = system: RPMI7951
# RVH-421 = system: RVH-421
# SkMel28 = system: SkMel28
# SkMel2 = system: SkMel2
# SkMel30 = system: SkMel30
# UACC62 = system: UACC62
# SkMel5 = system: SkMel5
# UACC257 = system: UACC257
# 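Note: cell number obtained by counting DAPI-stained nuclei in high-throughput microscope images with image analysis software, screen run in 1,536-well plates.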
Structure (SMILES),cell count (MZ2-MEL),cell count (MeWo),cell count (RPMI7951),cell count (RVH-421),cell count (SkMel28),cell count (SkMel2),cell count (SkMel30),cell count (UACC62),cell count (SkMel5),cell count (UACC257)
"CCN(CC)CCNC(=O)c1c(C)[nH]c(/C=C2\C(=O)Nc3ccc(F)cc32)c1C [sunitinib] + COCC[n+]1c2c(n(Cc3cnccn3)c1C)C(=O)c1ccccc1C2=O [YM155] (first compound 0.4 µM, partner dose 0.0004 µM)",74.8%,76%,93.9%,102%,91.3%,99.7%,82.3%,80.1%,,
"Cn1cnc2c(F)c(Nc3ccc(Br)cc3Cl)c(C(=O)NOCCO)cc21 [selumetinib] + Cc1cc([N+](=O)[O-])ccc1NS(=O)(=O)c1cc(Cl)ccc1Cl [FH535] (first compound 0.015 µM, partner dose 1 µM)",,97.9%,108%,90.6%,81%,60.3%,62.1%,64.7%,116%,99.9%
"COc1cc([C@@H]2c3cc4c(cc3[C@@H](O[C@@H]3O[C@@H]5CO[C@@H](C)O[C@H]5[C@H](O)[C@H]3O)[C@H]3COC(=O)[C@H]23)OCO4)cc(OC)c1O [etoposide] + O=C(/C=C/c1cccnc1)NCCCCC1CCN(C(=O)c2ccccc2)CC1 [FK866] (first compound 0.02 µM, partner dose 0.01 µM)",,96.5%,98.8%,66%,103%,46.8%,110%,87.8%,,
"C[C@]1(O)C[C@@H](c2nc(-c3ccc4ccc(-c5ccccc5)nc4c3)c3c(N)nccn32)C1 + Nc1nc(F)nc2c1ncn2[C@@H]1O[C@H](CO)[C@@H](O)[C@@H]1O [fludarabine] (first compound 0.4 µM, partner dose 0.2 µM)",,38.3%,90.9%,104%,77.6%,,14.9%,73.7%,,
"COc1cc([C@@H]2c3cc4c(cc3[C@@H](O[C@@H]3O[C@@H]5CO[C@@H](C)O[C@H]5[C@H](O)[C@H]3O)[C@H]3COC(=O)[C@H]23)OCO4)cc(OC)c1O [etoposide] + Nc1ccn([C@@H]2O[C@H](CO)[C@@H](O)C2(F)F)c(=O)n1 [gemcitabine] (first compound 0.02 µM, partner dose 0.0004 µM)",91.1%,85.9%,87.8%,100%,86.5%,92%,92.9%,86.2%,,
"CCN(CC)CCNC(=O)c1c(C)[nH]c(/C=C2\C(=O)Nc3ccc(F)cc32)c1C [sunitinib] + CO[C@H]1C[C@@H]2CC[C@@H](C)[C@@](O)(O2)C(=O)C(=O)N2CCCC[C@H]2C(=O)O[C@H]([C@H](C)C[C@@H]2CC[C@@H](OCCO)[C@H](OC)C2)CC(=O)[C@H](C)/C=C(\C)[C@@H](O)[C@@H](OC)C(=O)[C@H](C)C[C@H](C)/C=C/C=C/C=C/1C [everolimus] (first compound 0.4 µM, partner dose 0.02 µM)",77%,58.6%,90.6%,71.6%,59.7%,,50.5%,48.4%,,
"COc1cc([C@@H]2c3cc4c(cc3[C@@H](O[C@@H]3O[C@@H]5CO[C@@H](C)O[C@H]5[C@H](O)[C@H]3O)[C@H]3COC(=O)[C@H]23)OCO4)cc(OC)c1O [etoposide] + C[C@@H](Oc1cc(-c2cnn(C3CCNCC3)c2)cnc1N)c1c(Cl)ccc(F)c1Cl [Crizotinib] (first compound 0.02 µM, partner dose 0.2 µM)",94.7%,89.9%,101%,82.1%,87.2%,95%,88.8%,84.1%,,

# — the supplement of paper PMC4604168 (melanoma cell lines)
